Laboratory results: the supplement of paper PMC4604168 (melanoma cell lines)
Some of the results follow. Repeats are few or missing, and single values can be far off.

Assays:
Assay in all cases: cell count relative to DMSO control; melanoma cells; higher = more viable cells
Settings in all cases: library dose: low library concentration; 72 h
[1] = test system: MZ2-MEL
[2] = test system: MeWo
[3] = test system: RPMI7951
[4] = test system: RVH-421
[5] = test system: SkMel28
[6] = test system: SkMel2
[7] = test system: SkMel30
[8] = test system: SkMel5
[9] = test system: UACC257
[10] = test system: UACC62
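Also: cell number obtained by counting DAPI-stained nuclei in high-throughput microscope images with image analysis software, screen run in 1,536-well plates.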

## Cn1cc(C2=C(c3cn(C4CCN(Cc5ccccn5)CC4)c4ccccc34)C(=O)NC2=O)c2ccccc21 [Enzastaurin] + c1cc(-c2cnn3cc(-c4ccc(OCCN5CCCCC5)cc4)cnc23)ccn1 [Dorsomorphin] (first compound 0.8 µM, partner dose 0.4 µM)
[1]
  cell count: 101%
[2]
  cell count: 124%
[3]
  cell count: 73%
[4]
  cell count: 88.3%
[5]
  cell count: 119%
[6]
  cell count: 119%
[7]
  cell count: 114%
[8]
  cell count: 103%
[9]
  cell count: 114%
[10]
  cell count: 109%

## N.N.[Cl][Pt][Cl] [cisplatin] + CCc1ccc(CCOc2ccc(CC3SC(=O)NC3=O)cc2)nc1 [pioglitazone] (first compound 1.6 µM, partner dose 2 µM)
[1]
  cell count: 64.2%
[2]
  cell count: 98.8%
[3]
  cell count: 69.5%
[4]
  cell count: 86.8%
[5]
  cell count: 84.7%
[6]
  cell count: 40%
[7]
  cell count: 87%
[8]
  cell count: 91.7%
[9]
  cell count: 90.5%
[10]
  cell count: 89.7%

## Cn1cc(C2=C(c3cn(C4CCN(Cc5ccccn5)CC4)c4ccccc34)C(=O)NC2=O)c2ccccc21 [Enzastaurin] + COC(=O)c1sccc1S(=O)(=O)Nc1ccc(Nc2ccccc2)cc1OC [GSK0660] (first compound 0.8 µM, partner dose 1 µM)
[1]
  cell count: 94.2%
[2]
  cell count: 117%
[3]
  cell count: 92.6%
[4]
  cell count: 94.2%
[5]
  cell count: 99.2%
[6]
  cell count: 105%
[7]
  cell count: 103%
[8]
  cell count: 95.7%
[9]
  cell count: 85.8%
[10]
  cell count: 102%

## C[As](C)SC[C@H](NC(=O)CC[C@H](N)C(=O)O)C(=O)NCC(=O)O [Darinaparsin] + Cc1ccc(NC(=O)c2cccc(N(C)C)c2)cc1NC(=O)c1ccc(O)cc1 [ZM336372] (first compound 0.4 µM, partner dose 2 µM)
[1]
  cell count: 85.3%
[2]
  cell count: 94.8%
[3]
  cell count: 94.5%
[4]
  cell count: 104%
[5]
  cell count: 91.3%
[6]
  cell count: 96.2%
[7]
  cell count: 66.4%
[8]
  cell count: 97.9%
[9]
  cell count: 90%
[10]
  cell count: 110%

## Cn1cc(C2=C(c3cn(C4CCN(Cc5ccccn5)CC4)c4ccccc34)C(=O)NC2=O)c2ccccc21 [Enzastaurin] + O=C(Nc1cccc(Cl)c1)Nc1ncc(CCNc2ncnc3ccsc23)s1 [SNS314] (first compound 0.8 µM, partner dose 0.0008 µM)
[1]
  cell count: 105%
[2]
  cell count: 94.5%
[3]
  cell count: 85.8%
[4]
  cell count: 79.3%
[5]
  cell count: 106%
[6]
  cell count: 101%
[7]
  cell count: 113%
[8]
  cell count: 102%
[9]
  cell count: 83.6%
[10]
  cell count: 128%

## C[As](C)SC[C@H](NC(=O)CC[C@H](N)C(=O)O)C(=O)NCC(=O)O [Darinaparsin] + Cn1cncc1[C@@](N)(c1ccc(Cl)cc1)c1ccc2c(c1)c(-c1cccc(Cl)c1)cc(=O)n2C [tipifarnib] (first compound 0.4 µM, partner dose 0.01 µM)
[1]
  cell count: 110%
[2]
  cell count: 89.9%
[3]
  cell count: 101%
[4]
  cell count: 76.1%
[5]
  cell count: 88.1%
[6]
  cell count: 81.7%
[7]
  cell count: 79.4%
[8]
  cell count: 103%
[9]
  cell count: 86.7%
[10]
  cell count: 70.4%

## N.N.[Cl][Pt][Cl] [cisplatin] + CN(NC(=O)CC(=O)NN(C)C(=S)c1ccccc1)C(=S)c1ccccc1 [STA4783] (first compound 1.6 µM, partner dose 0.006 µM)
[1]
  cell count: 104%
[2]
  cell count: 107%
[3]
  cell count: 108%
[4]
  cell count: 91.5%
[5]
  cell count: 96%
[6]
  cell count: 104%
[7]
  cell count: 98.5%
[8]
  cell count: 99.5%
[9]
  cell count: 102%
[10]
  cell count: 87.7%

## Cn1cc(C2=C(c3cn(C4CCN(Cc5ccccn5)CC4)c4ccccc34)C(=O)NC2=O)c2ccccc21 [Enzastaurin] + O=C(Oc1ccc([N+](=O)[O-])cc1)N1CCC(C(O)(c2ccc3c(c2)OCO3)c2ccc3c(c2)OCO3)CC1 [JZL184] (first compound 0.8 µM, partner dose 1 µM)
[1]
  cell count: 92.3%
[2]
  cell count: 115%
[3]
  cell count: 97.1%
[4]
  cell count: 86.8%
[5]
  cell count: 92.3%
[6]
  cell count: 109%
[7]
  cell count: 107%
[8]
  cell count: 88.5%
[9]
  cell count: 86.5%
[10]
  cell count: 115%

## C[As](C)SC[C@H](NC(=O)CC[C@H](N)C(=O)O)C(=O)NCC(=O)O [Darinaparsin] + Cc1cc(N2CCOCC2)cc2[nH]c(-c3c(NC[C@@H](O)c4cccc(Cl)c4)cc[nH]c3=O)nc12 [BMS536924] (first compound 0.4 µM, partner dose 0.2 µM)
[1]
  cell count: 97%
[2]
  cell count: 93.5%
[3]
  cell count: 96.9%
[4]
  cell count: 107%
[5]
  cell count: 106%
[6]
  cell count: 84.7%
[7]
  cell count: 110%
[8]
  cell count: 100%
[9]
  cell count: 90%
[10]
  cell count: 89.9%

## N.N.[Cl][Pt][Cl] [cisplatin] + c1cc(-c2cnn3cc(-c4ccc(OCCN5CCCCC5)cc4)cnc23)ccn1 [Dorsomorphin] (first compound 1.6 µM, partner dose 0.4 µM)
[1]
  cell count: 91%
[2]
  cell count: 90.7%
[3]
  cell count: 96.3%
[4]
  cell count: 70%
[5]
  cell count: 95.3%
[6]
  cell count: 102%
[7]
  cell count: 87.5%
[8]
  cell count: 88.7%
[9]
  cell count: 92.7%
[10]
  cell count: 89.5%

## N.N.[Cl][Pt][Cl] [cisplatin] + O=C(Nc1ccccc1)c1cc([N+](=O)[O-])ccc1Cl [GW9662] (first compound 1.6 µM, partner dose 2 µM)
[1]
  cell count: 96.4%
[2]
  cell count: 89.6%
[3]
  cell count: 92.8%
[4]
  cell count: 70.6%
[5]
  cell count: 92.3%
[6]
  cell count: 96%
[7]
  cell count: 91.9%
[8]
  cell count: 84%
[9]
  cell count: 113%
[10]
  cell count: 100%

## N.N.[Cl][Pt][Cl] [cisplatin] + CC1(C)NC(=O)N(c2ccc([N+](=O)[O-])c(C(F)(F)F)c2)C1=O [nilutamide] (first compound 1.6 µM, partner dose 1 µM)
[1]
  cell count: 102%
[2]
  cell count: 104%
[3]
  cell count: 76.7%
[4]
  cell count: 85%
[5]
  cell count: 71.6%
[6]
  cell count: 99.6%
[7]
  cell count: 93.6%
[8]
  cell count: 105%
[9]
  cell count: 109%
[10]
  cell count: 105%

## Cn1cc(C2=C(c3cn(C4CCN(Cc5ccccn5)CC4)c4ccccc34)C(=O)NC2=O)c2ccccc21 [Enzastaurin] + C/C(O)=C(\C#N)C(=O)Nc1cc(Br)ccc1Br [LFM-A13] (first compound 0.8 µM, partner dose 2 µM)
[1]
  cell count: 92.5%
[2]
  cell count: 109%
[3]
  cell count: 86.3%
[4]
  cell count: 69%
[5]
  cell count: 84.8%
[6]
  cell count: 105%
[7]
  cell count: 104%
[8]
  cell count: 88.8%
[9]
  cell count: 96.6%
[10]
  cell count: 88.6%

## Cn1cc(C2=C(c3cn(C4CCN(Cc5ccccn5)CC4)c4ccccc34)C(=O)NC2=O)c2ccccc21 [Enzastaurin] + CN(C)S(=O)(=O)c1ccc2c(c1)/C(=C/c1cc3c([nH]1)CCCC3)C(=O)N2 [SU6656] (first compound 0.8 µM, partner dose 0.4 µM)
[1]
  cell count: 108%
[2]
  cell count: 111%
[3]
  cell count: 94%
[4]
  cell count: 85%
[5]
  cell count: 96.6%
[6]
  cell count: 103%
[7]
  cell count: 108%
[8]
  cell count: 85.7%
[9]
  cell count: 87.9%
[10]
  cell count: 80.5%

## N.N.[Cl][Pt][Cl] [cisplatin] + CC(C)(C)c1cnc(CSc2cnc(NC(=O)C3CCNCC3)s2)o1 [SNS-032] (first compound 1.6 µM, partner dose 0.01 µM)
[1]
  cell count: 111%
[2]
  cell count: 98.6%
[3]
  cell count: 120%
[4]
  cell count: 93.6%
[5]
  cell count: 89.2%
[6]
  cell count: 93.1%
[7]
  cell count: 104%
[8]
  cell count: 100%
[9]
  cell count: 93.7%
[10]
  cell count: 96%

## C[As](C)SC[C@H](NC(=O)CC[C@H](N)C(=O)O)C(=O)NCC(=O)O [Darinaparsin] + NC(=O)Nc1cc(-c2cccc(F)c2)sc1C(=O)N[C@H]1CCCNC1 [AZD7762] (first compound 0.4 µM, partner dose 0.02 µM)
[1]
  cell count: 118%
[2]
  cell count: 102%
[3]
  cell count: 124%
[4]
  cell count: 105%
[5]
  cell count: 79.5%
[6]
  cell count: 115%
[7]
  cell count: 101%
[8]
  cell count: 101%
[9]
  cell count: 92.6%
[10]
  cell count: 83.5%

## N.N.[Cl][Pt][Cl] [cisplatin] + O=C1NC(=O)/C(=C/c2ccc(-c3ccc(F)cc3O)o2)S1 [AS252424] (first compound 1.6 µM, partner dose 1 µM)
[1]
  cell count: 97.4%
[2]
  cell count: 88.9%
[3]
  cell count: 96%
[4]
  cell count: 83.4%
[5]
  cell count: 80.1%
[6]
  cell count: 96.3%
[7]
  cell count: 85.6%
[8]
  cell count: 94.4%
[9]
  cell count: 94.2%
[10]
  cell count: 101%

## Cn1cc(C2=C(c3cn(C4CCN(Cc5ccccn5)CC4)c4ccccc34)C(=O)NC2=O)c2ccccc21 [Enzastaurin] + CCN(CC)CCCCNc1ncc2cc(-c3cc(OC)cc(OC)c3)c(NC(=O)NC(C)(C)C)nc2n1 [PD173074] (first compound 0.8 µM, partner dose 0.1 µM)
[1]
  cell count: 95.1%
[2]
  cell count: 112%
[3]
  cell count: 92%
[4]
  cell count: 77.8%
[5]
  cell count: 81.2%
[6]
  cell count: 85.2%
[7]
  cell count: 86.3%
[8]
  cell count: 93.2%
[9]
  cell count: 95%
[10]
  cell count: 99.4%

## C[As](C)SC[C@H](NC(=O)CC[C@H](N)C(=O)O)C(=O)NCC(=O)O [Darinaparsin] + C[C@@H]1CCN(C(=O)CC#N)C[C@@H]1N(C)c1ncnc2[nH]ccc12 [CP690550] (first compound 0.4 µM, partner dose 1 µM)
[1]
  cell count: 118%
[2]
  cell count: 97.6%
[3]
  cell count: 124%
[4]
  cell count: 120%
[5]
  cell count: 105%
[6]
  cell count: 99.9%
[7]
  cell count: 95.3%
[8]
  cell count: 91.6%
[9]
  cell count: 85.3%
[10]
  cell count: 115%

## N.N.[Cl][Pt][Cl] [cisplatin] + COc1ccc(COc2ccc(Cc3cnc(N)nc3N)cc2OC)cc1 [GW2580] (first compound 1.6 µM, partner dose 1 µM)
[1]
  cell count: 100%
[2]
  cell count: 93.5%
[3]
  cell count: 106%
[4]
  cell count: 110%
[5]
  cell count: 97.1%
[6]
  cell count: 114%
[7]
  cell count: 116%
[8]
  cell count: 110%
[9]
  cell count: 96.5%
[10]
  cell count: 115%

## N.N.[Cl][Pt][Cl] [cisplatin] + OCCn1cc(-c2cnc3nnn(Cc4ccc5ncccc5c4)c3n2)cn1 [PF04217903] (first compound 1.6 µM, partner dose 1 µM)
[1]
  cell count: 101%
[2]
  cell count: 94.2%
[3]
  cell count: 97.3%
[4]
  cell count: 86.4%
[5]
  cell count: 99.6%
[6]
  cell count: 108%
[7]
  cell count: 112%
[8]
  cell count: 97%
[9]
  cell count: 95.2%
[10]
  cell count: 98.6%

## N.N.[Cl][Pt][Cl] [cisplatin] + COC(=O)c1sccc1S(=O)(=O)Nc1ccc(Nc2ccccc2)cc1OC [GSK0660] (first compound 1.6 µM, partner dose 1 µM)
[1]
  cell count: 97.1%
[2]
  cell count: 98.8%
[3]
  cell count: 98.3%
[4]
  cell count: 117%
[5]
  cell count: 109%
[6]
  cell count: 95.7%
[7]
  cell count: 104%
[8]
  cell count: 99.5%
[9]
  cell count: 111%
[10]
  cell count: 101%

## Cn1cc(C2=C(c3cn(C4CCN(Cc5ccccn5)CC4)c4ccccc34)C(=O)NC2=O)c2ccccc21 [Enzastaurin] + NCC(=O)Nc1ccc(-n2nc(C(F)(F)F)cc2-c2ccc3c(ccc4ccccc43)c2)cc1 [OSU03012] (first compound 0.8 µM, partner dose 1 µM)
[1]
  cell count: 99%
[2]
  cell count: 64.7%
[3]
  cell count: 88.4%
[4]
  cell count: 72.2%
[5]
  cell count: 91.1%
[6]
  cell count: 86.2%
[7]
  cell count: 61.3%
[8]
  cell count: 93.1%
[9]
  cell count: 100%
[10]
  cell count: 87.4%
